The other results are listed elsewhere or left out.

B1: PhoQ; a variant is named by its letters at X, in order, P23837 (parent)
chain: MKKLLRLFFPLSLRVRFLLATAAVVLVLSLAYGMVALIGYSVSFDKTTFRLLRGESNLFYTLAKWENNKLHVELPENIDKQSPTMTLIYDENGQLLWAQRDVPWLMKMIQPDWLKSNGFHEIEADVNDTSLLLSGDHSIQQQLQEVREDDDDAEMTHSVAVNVYPATSRMPKLTIVVVDTIPVELKSSYMVWSWFIYVLSANLLLVIPLLWVAAWWSLRPIEALAKEVRELEEHNRELLNPATTRELTSLVRNLNRLLKSERERYDKYRTTLTDLTHSLKTPLXXLQXXLRSLRSEKMSVSDAEPVMLEQISRISQQIGYYLHRASMRGGTLLSRELHPVAPLLDNLTSALNKVYQRKGVNISLDISPEISFVGEQNDFVEVMGNVLDNACKYCLEFVEISARQTDEHLYIVVEDDGPGIPLSKREVIFDRGQRVDTLRPGQGVGLAVAREITEQYEGKIVAGESMLGGARMEVIFGRQHSAPKDE

Variants of B1 are the subject of this experiment. The experiment is described as follows: enrichment ratio after two sorts for PhoP signalling (ratio (wild type AVST 3.29)); higher = more functional. The note with it: with PhoP (E. coli).
On to MNIY, for which the enrichment ratio was at most 0.25. Under FLWT stands at most 0.25; under EETT, at most 0.25; under MPSN, at most 0.25. With VIYY, the enrichment ratio is at most 0.25. With VGIL the figure was at most 0.25; with VELY, at most 0.25; with YGWV, at most 0.25. With PAPD the figure was at most 0.25; with GFPY, at most 0.25; with SMGD, 1.08.

On to NLHM, for which the enrichment ratio was at most 0.25.

Consider WYGP, for which the enrichment ratio was at most 0.25. RAQH: the enrichment ratio was at most 0.25. Under WCQP stands at most 0.25; under IMTF, at most 0.25. Under MGTF stands at most 0.25; under HGCC, at most 0.25; under IQPV, at most 0.25. For QVMN, the enrichment ratio was at most 0.25. Turning to YCVW, the enrichment ratio was at most 0.25. Turning to WCLQ, the enrichment ratio was at most 0.25. With QWLC the figure was at most 0.25; with MPCK, at most 0.25. Consider RRYK, for which the enrichment ratio was at most 0.25. Under WEQS stands at most 0.25. Under NIFD stands at most 0.25; under MYKQ, at most 0.25; under TNFD, at most 0.25.

On to RQCL, for which the enrichment ratio is at most 0.25.

In the case of YRPL, the enrichment ratio is at most 0.25. With RGRA the figure was at most 0.25; with HCCR, at most 0.25. With SKME the figure was at most 0.25; with YTTT, at most 0.25. Consider TCSP, for which the enrichment ratio is at most 0.25. KSFC: the enrichment ratio is at most 0.25. Under WQYP stands at most 0.25; under NSVP, at most 0.25. Under YADG stands at most 0.25.

As to TEDP, the enrichment ratio is at most 0.25.

As to PYFC, the enrichment ratio is at most 0.25. For the variant EIRK, the enrichment ratio is at most 0.25. For NPYC, the enrichment ratio was at most 0.25. With TYCT the figure was at most 0.25; with DSLM, at most 0.25; with RDID, at most 0.25. On to GHNF, for which the enrichment ratio was at most 0.25. Under MSPI stands at most 0.25; under QMAA, at most 0.25; under PKMC, at most 0.25. On to SHHE, for which the enrichment ratio is at most 0.25. Consider HVLA, for which the enrichment ratio is at most 0.25. On to WTYK, for which the enrichment ratio was at most 0.25. Under FTTV stands at most 0.25; under EAEW, at most 0.25; under AARF, at most 0.25.

For the variant PSKA, the enrichment ratio is at most 0.25.

In the case of WVFD, the enrichment ratio is at most 0.25. Under FPIM stands at most 0.25. Consider RRHT, for which the enrichment ratio is at most 0.25. Turning to PVAF, the enrichment ratio was at most 0.25. With SQMQ the figure was 7.7.

Turning to TFHA, the enrichment ratio is at most 0.25. For the variant KGQP, the enrichment ratio was at most 0.25. In the case of LKSP, the enrichment ratio was at most 0.25. Turning to TQHR, the enrichment ratio was at most 0.25. Under DQLY stands at most 0.25. With IGYV the figure was at most 0.25. As to SGAP, the enrichment ratio is at most 0.25. With TCSG the figure was 26.2. For MYIF, the enrichment ratio was at most 0.25. Under WEEQ stands at most 0.25. Under GMKG stands at most 0.25; under TNRG, at most 0.25; under ERHN, at most 0.25. Under SSQK stands at most 0.25; under DIGP, at most 0.25; under FRPD, at most 0.25. For the variant MKMR, the enrichment ratio was at most 0.25. On to IHNC, for which the enrichment ratio worked out at 0.671. Take TPFL: the enrichment ratio is at most 0.25. Under PHIS stands at most 0.25.

RTFC: the enrichment ratio is at most 0.25. With PWYA the figure was at most 0.25.

As to HQVY, the enrichment ratio was at most 0.25. For the variant FDIC, the enrichment ratio was at most 0.25. Consider IEIV, for which the enrichment ratio was at most 0.25. Under KKGP stands at most 0.25; under LGTF, at most 0.25. In the case of VRWR, the enrichment ratio is at most 0.25. With FTSD the figure was at most 0.25.

Consider NGAA, for which the enrichment ratio was at most 0.25. Under IWEV stands at most 0.25; under AHGY, at most 0.25; under PCHC, at most 0.25.

AGLN: the enrichment ratio worked out at 5.75. Under ADMD stands at most 0.25; under TAYL, 10.9. As for LEWN, the enrichment ratio was at most 0.25.

Consider TDMF, for which the enrichment ratio turned out to be 5.69. Under GCLC stands 6.46; under PSRE, at most 0.25; under KMSD, at most 0.25. Under WSAK stands at most 0.25; under KLYK, at most 0.25. With DFRT the figure was at most 0.25. For the variant AMET, the enrichment ratio was at most 0.25. With LHTN, the enrichment ratio was at most 0.25.

For YWQM, the enrichment ratio was at most 0.25. Under FSMH stands 0.307; under LGHH, at most 0.25. As to NIEI, the enrichment ratio is at most 0.25. Turning to DQWT, the enrichment ratio was at most 0.25. Under QYLQ stands at most 0.25; under ESPM, at most 0.25.

On to EGIV, for which the enrichment ratio was at most 0.25. Consider KNYF, for which the enrichment ratio is at most 0.25. With SSFY the figure was 5.08; with PWDG, at most 0.25; with LNQV, at most 0.25.

On to ENCD, for which the enrichment ratio is at most 0.25.

Consider WMEG, for which the enrichment ratio was at most 0.25. With RVKW the figure was at most 0.25; with TCTN, 22.5. With SQTR the figure was at most 0.25; with KVDI, at most 0.25. In the case of YAMI, the enrichment ratio is at most 0.25.

Consider KSCQ, for which the enrichment ratio is at most 0.25. Under YLPK stands at most 0.25.

NFCQ: the enrichment ratio is at most 0.25. Under KYME stands at most 0.25; under MGKS, at most 0.25; under MNCI, at most 0.25. Under PQCN stands at most 0.25. Regarding RYHH, the enrichment ratio is at most 0.25. With SNGI, the enrichment ratio came out at 12.1. Take RTNQ: the enrichment ratio was at most 0.25. In the case of PSFT, the enrichment ratio was at most 0.25. Turning to LCEH, the enrichment ratio was at most 0.25.

On to WSWK, for which the enrichment ratio is at most 0.25.

Turning to VGPS, the enrichment ratio is at most 0.25. Regarding TWVQ, the enrichment ratio was at most 0.25. With MHYD the figure was at most 0.25; with ISSK, at most 0.25; with YCMF, at most 0.25. Turning to PANV, the enrichment ratio was at most 0.25. As for RITW, the enrichment ratio is at most 0.25. Under GLGV stands at most 0.25; under LEKA, at most 0.25; under LYLW, at most 0.25. With TIAC, the enrichment ratio was determined as 12.1. In the case of RCAS, the enrichment ratio is at most 0.25.

The record behind these values is a collection of fitness landscapes (doi:10.1126/science.1257360).
